Consider 41 variants from the RNAGym collection of RNA variant scans (doi:10.7554/elife.90254).

First the molecules themselves.
B1: OR4K15 (parent)
chain: GUUAACGGUCAUAGGCCAUGGAAACUAGGAGCACCAUUUCGCUGCCAGUGAAGAAAUGAACAAAGAAAAUCUGGGCCAGGCAGGCAUCAAAAGAAAUAGUCUUGCGCUCAACCAGAAAGUCUGUAAUCAUUUUAAGGGUA

The source gives no read counts; variants with many changes may rest on few reads.

Variants of B1 are the subject of the data set. Description: self-cleavage, relative activity (ratio to wild type); higher = more cleavage; in vitro, sequencing; the parent is a self-cleaving ribozyme.
GUUAACGGUCAUAGGCCAUGGAAACUAGGAGCACCAUUUCGCUGCCAGUGGAGAAAUGAACAAAGAAAAUCUGGGCCAGGCAGGCAUCAAAAGAGAUAGUCUUGCGCUCGACCAGAAAGUCUGUAAUCACUUUAAGGGUA [A51G A95G A110G U130C]: the self-cleavage came out at 0.37.
As to GUUAACGGUCAUAGGCCAUGGAAACUAGGAGCACCAUUUCGCUGCCAGUGGAGAAAUGAACAAAGAAAAUCUGGGCCAGGCAGGCAUCAAAAGAGAUAGUCUUGCGCUCAACCAGAAAGUCUGUAAUCAUCUUAAGGGUA [A51G A95G U131C], the self-cleavage was 1.65.
Under GUUAACGGUCAUAGGCCAUGGAAACUAGGAGCACCAUUUCGCUGCCAGUGGAGAAAUGAACAAAGAAAAUCUGGGCCAGGCAGGCAUCAAGAGAAAUAGUCUUGCGCCCAACCAGAAGGUCUGUAAUCAUUUUAAGGGUA [A51G A91G U108C A118G] stands 0.01; under GUUAACGGUCAUAGGCCAUGGAAACUAGGAGCACCAUUUCGCUGCCAGUGGAGAAAUGAACAAAGAAAAUCAGGGCCAGGCAGGCAUCAAAAGGGAUAGUCUUGCGCUCAACCGGAAAGUCUGUAAUCAUUUUAAGGGUA [A51G U72A A94G A95G A114G], 0.15.
With GUUAACGGUCAUAGGCCAUGGAAACUAGGAGCACCAUUUCGCUGCCAGUGGAGAAAGGAACAAAGAGAAUCUGGGCCAGGCAGGCAUCAAAAGAAAUAGUCUUGCGCUCAACCAGAAAGUCUGUAAUCAUUUUAAGGGUA [A51G U57G A67G] the figure was 0.72; with GUUAACGGUCAUAGGCCAUGGAAACUAGGAGCACCAUUUCGCUGCCAGUGGAGAAAUGAACAAAGAAGAUCUGGGCCAGGCAGGCAUCAAAAGAAACAGUCUUGCGCUCAACCAGAAAGUCUGUAAUCAUUUUAAGGGUA [A51G A68G U97C], 1.06.
With GUUAACGGUCAUAGGCCAUGGAAACUAGGAGCACCAUUUCGCUGCCAGUGGAGAAAUGAACAAAGAAAAUCUGGGCCAGGCGGGCAUCAAAAGUAAUAGUCCUGCGCCCGACCAGAAAGUCUGUAAUCAUUUUAAGGGUA [A51G A82G A94U U102C U108C A110G] the figure was 0; with GUUAACGGUCAUAGGCCAUGGAAACUAGGAGCACCAUUUCGCUGCCAGUGGAGAAAUGAACAAAGAAAAUCUGGGCCAGGCAGGCAUCAAAAGACAUAGUCUUGCGCUCAACCAGAAAGUCCGUAAUCAUUUUAAGGGUA [A51G A95C U122C], 0.52.
Turning to GUUAACGGUCAUAGGCCAUGGAAACUAGGAGCACCAUUUCGCUGCCAGUGGAGAAAUGAACAAAGAAAAUCUGGGCCAGGCAGGCAUCAAAAGAAAUAGCCUUGCGCUCAGCCAGAAAGUCUGUAAUCAUUUUAAGGGUA [A51G U100C A111G], the self-cleavage was 0.01.
Turning to GUUAACGGUCAUAGGCCAUGGAAACUAGGAGCACCAUUUCGCUGCCAGUGGAGAAACGAACAAAGAAAACCUGGGCCAGGCAGGCAUCAAAAGAAAUAGUCUUGCGCUCAACCAGAAAGUCUGUAAUCAUUUUAAGGGUA [A51G U57C U70C], the self-cleavage was 0.57.
With GUUAACGGUCAUAGGCCAUGGAAACUAGGAGCACCAUUUCGCUGCCAGUGGAGAAAUGAACAAAGAAAAACUGGGCCAGGCAGGCAUCAAAAGAAAUAGUCUUGCGCUCAACCAGAGAGUCUGUAAUCAUUUUAAGGGUA [A51G U70A A117G], the self-cleavage is 1.14.
Under GUUAACGGUCAUAGGCCAUGGAAACUAGGAGCACCAUUUCGCUGCCAGUGGAGAAAUGAACAAAGAAAAUCUGGGCCAGGCAGGCAUCAAAAGAAAUAGUCCUGCGCUCAACCAGAAAGUCUGUAAUCAUUUCAAGGGUA [A51G U102C U133C] stands 1.66.
Under GUUAACGGUCAUAGGCCAUGGAAACUAGGAGCACCAUUUCGCUGCCAGUGGAGAAAUGAACAAAGAAAAUCUGGGCCAGGCAGGCACCAAAAGAAAUAGUCUUGCGCUCAACCAGUAAGUCUGUAAUCAUUUUAAGGGUA [A51G U87C A116U] stands 0.16; under GUUAACGGUCAUAGGCCAUGGAAACUAGGAGCACCAUUUCGCUGCCAGUGGAGAAAUGAACAAAGAAAAUCUGGGCCAGGCAGGCAUCAAUAGAAAUAGUCUUGCGCUCAACCAGAAAGUCUGUAAACAUUUUAAGGGUA [A51G A91U U127A], 2.96.
With GUUAACGGUCAUAGGCCAUGGAAACUAGGAGCACCAUUUCGCUGCCAGUGGAGAAAUGAACAAAGAAAAUCUGGGCCAGGCAGGCACCAAAAGAAAUAGUCUUGCGCUCAACCAGAAAGUCUGUGAUCAUUUUAAGGGUA [A51G U87C A125G] the figure was 0.09.
For the variant GUUAACGGUCAUAGGCCAUGGAAACUAGGAGCACCAUUUCGCUGCCAGUGGAGAAAUGAACAAAGAAAAUCAGGGCCAGGCAGGCAUCAAAAGAAAUAGUCUUGCGCUCAACCAGAAAGUCUGUAAUCAUCUUAAGGGUA [A51G U72A U131C], the self-cleavage was 0.13.
On to GUUAACGGUCAUAGGCCAUGGAAACUAGGAGCACCAUUUCGCUGCCAGUGGAGAAAUGAACAAAGAAAAUCUGGGCCAGGCAGGCAUCAAAAGAAAUAGUCUUGCGCUCAACCAGAAAGUCUGUAUUCAUUCUAAGGGUA [A51G A126U U132C], for which the self-cleavage came out at 1.04.
In the case of GUUAACGGUCAUAGGCCAUGGAAACUAGGAGCACCAUUUCGCUGCCAGUGGAGAAAUGAACAAAGAAAAUCUGGGCCAGGCAGGCAUCAAAAGAAAUAGUCUUGCGCUCAACCAGAGAGUCUGUAGUCAUUUUAAGGGUA [A51G A117G A126G], the self-cleavage was determined as 1.5.
With GUUAACGGUCAUAGGCCAUGGAAACUAGGAGCACCAUUUCGCUGCCAGUGGAGAAAUGAACAAAGAAAAUCCGAGCCAGGCAGGCUUCAAAAGAAAUAGUCUUGCGCUCAACCAGAAAGUCUGUAAUCAUUCUAAGGGUA [A51G U72C G74A A86U U132C] the figure was 0.09; with GUUAACGGUCAUAGGCCAUGGAAACUAGGAGCACCAUUUCGCUGCCAGUGGAGAAAUGAACAAAGAAGAUCUGGGCCAGGCAGGCAUCAAAAGAAAUAGUCUUGCGCUCAACCAGAAAGUCUGUAACCAUUUUAAGGGUA [A51G A68G U127C], 1.45; with GUUAACGGUCAUAGGCCAUGGAAACUAGGAGCACCAUUUCGCUGCCAGUGGAGAAAUGAACAAAGAAAAUCUGGGCCAGGCUGGCAUCAAAAGAGAUAGUCUUGCGCUCAACCAGAAAGCCUGUAAUCAUUUUAAGGGUA [A51G A82U A95G U120C], 0.43.
For the variant GUUAACGGUCAUAGGCCAUGGAAACUAGGAGCACCAUUUCGCUGCCAGUGGAGAAAUGAACAAAGAAAAUAUGGGCCAGGCAGGCAUCAAAAGAAGUAGUCUUGCGCUCAACCAGAAAGUCUGUAAUCAUUUUAAGGGUA [A51G C71A A96G], the self-cleavage was determined as 0.09.
With GUUAACGGUCAUAGGCCAUGGAAACUAGGAGCACCAUUUCGCUGCCAGUGGAGAAAUGAACAAAGAAAAUCUGGGCCAGGCAGGCAUCAAGAGAAAUAGUCUUGCGCUCAACCAGACAGUCUGUAAUCAUUUUAAGGGUA [A51G A91G A117C] the figure was 0.93.
Under GUUAACGGUCAUAGGCCAUGGAAACUAGGAGCACCAUUUCGCUGCCAGUGGAGAAAUGAACAAAGAAAGCCUGGGCCAGGCAGGCAUCAAAAGAAAUAGUCUUGCGCUCAACCAGAAAGUCCGUAAUCAUUUUAAGGGUA [A51G A69G U70C U122C] stands 0.19; under GUUAACGGUCAUAGGCCAUGGAAACUAGGAGCACCAUUUCGCUGCCAGUGGAGAAAUGAACAAAGAAAAUCUGGGCCAGGCAGGCACCAAAAGAAAUAGUCUUGCGCUCAACCAGAAAGUCUGCGAUCAUUUUAAGGGUA [A51G U87C U124C A125G], 0.27; under GUUAACGGUCAUAGGCCAUGGAAACUAGGAGCACCAUUUCGCUGCCAGUGGAGAAAUGAACAAAGAGAAUCUGGGCCAGGCAGGCAUCAAAAGAAAUAGUCAUGCGCUCAACCAGAAAGUCUGUAAUCAUUUUAAGGGUA [A51G A67G U102A], 1.23.
With GUUAACGGUCAUAGGCCAUGGAAACUAGGAGCACCAUUUCGCUGCCAGUGGAGAAAUGAACAAAGAAAAUCUGGGCCAGGCAGGCAUCAAGAGAAAUAGUCUUGCGCUCAACCAGAAAGACUGUAAUCAUUUUAAGGGUA [A51G A91G U120A] the figure was 0.81; with GUUAACGGUCAUAGGCCAUGGAAACUAGGAGCACCAUUUCGCUGCCAGUGGAGAAAUGAACAAAGAAAAUCUGGGCCAGGCAGGCAUCAGAAGAAAUAGUCUUGCUCUCAACCAGAAAGUCUGUAAUCAUUUUAAGGGUA [A51G A90G G106U], 0; with GUUAACGGUCAUAGGCCAUGGAAACUAGGAGCACCAUUUCGCUGCCAGUGGAGAAAUGAACAAAGAAAAUCAGGGCCAGGCAGGCAUCAAAAGAAAUAGUCUCGCGCUCAACCAGAAAGUCUGUGAUCAUUUUAAGGGUA [A51G U72A U103C A125G], 0.02.
GUUAACGGUCAUAGGCCAUGGAAACUAGGAGCACCAUUUCGCUGCCAGUGGAGAAAUGAACAAAGAAAAUCUGGGCCAGGCAGGCAUCAGAAGAAAUAGUCAUGCGCUCAACCAGAAAGUCUGCGAUCAUUUUAAGGGUA [A51G A90G U102A U124C A125G]: the self-cleavage amounted to 0.15.
With GUUAACGGUCAUAGGCCAUGGAAACUAGGAGCACCAUUUCGCUGCCAGUGGAGAAAAGAACAAAGAAAAUCUGGGCCAGGCAGGCAUCAAAAGAAAUAGUCUUGCGCUCUACCAGAAAGUCUGUAAUCAUUUUAAGGGUA [A51G U57A A110U] the figure was 0.49; with GUUAACGGUCAUAGGCCAUGGAAACUAGGAGCACCAUUUCGCUGCCAGUGGAGAAAUGAACAAAGAAAAUCUGGGCCAGGCUGGCAUCAAAAGAAAUAGUCUUGCGCCCAACCAGAAAGUCUGUAAUCAUUUUAAGGGUA [A51G A82U U108C], 0.03.
With GUUAACGGUCAUAGGCCAUGGAAACUAGGAGCACCAUUUCGCUGCCAGUGGAGAAAUGAACAAAGAAAACCUGGGCCAGGCAGACAUCAAAAGAAAUAGUCUUGCGCACAACCAGAAAGUCUGUAGUCAUUUUAAGGGUA [A51G U70C G84A U108A A126G] the figure was 0.01; with GUUAACGGUCAUAGGCCAUGGAAACUAGGAGCACCAUUUCGCUGCCAGUGGAGAAAUGAACAAAGAAAAUCUGGGCCAGGCAGACAUCAAAAGAAAUAGUCUCGCGCUCAACCAGAAAGUCUGUAAUCAUUUUAAGGGUA [A51G G84A U103C], 1.31; with GUUAACGGUCAUAGGCCAUGGAAACUAGGAGCACCAUUUCGCUGCCAGUGGAGAAAUGAACAAAGAAAAUCUGGGCCAGGCAGGCAUCGAAAGAAAUAGUCUUGCGCUCAACCAGAGAGUCUGUAGUCAUUUUAAGGGUA [A51G A89G A117G A126G], 1.08.
With GUUAACGGUCAUAGGCCAUGGAAACUAGGAGCACCAUUUCGCUGCCAGUGGAGAAAUGAACAAAGAAAAUCUGGGCCAGGCAGGCACCAAAAGAAAUAGUCUUGCGCUCAACCAGAAAGUCAGUAAUCAUUUUAAGGGUA [A51G U87C U122A] the figure was 1.14; with GUUAACGGUCAUAGGCCAUGGAAACUAGGAGCACCAUUUCGCUGCCAGUGGAGAAAUGAACAAAGAAAAUCUGGGCCAGGCAAGCACCAAAAGAAAUAGUCUUGCGCUCAACCAGAAAGUCUGUAAUCAUUUUAAGGGUA [A51G G83A U87C], 1.61; with GUUAACGGUCAUAGGCCAUGGAAACUAGGAGCACCAUUUCGCUGCCAGUGGAGAAAUGAACAAAGAAGAUCUGGGCCUGGCUGGCAUCAAAAGAACUAGUCUUGCGCUCAACCAGAAAGUCUGUAAUCAUUUUAAGGGUA [A51G A68G A78U A82U A96C], 0.03.
For GUUAACGGUCAUAGGCCAUGGAAACUAGGAGCACCAUUUCGCUGCCAGUGGAGAAAUGAACAAAGAAAAUCUGGGCCAGGCAGGCGUCAAAAGAAAUAGUCUUGCGCCCAACCAGAAAGUCUGUAAUCAUUUUAAGGGUA [A51G A86G U108C], the self-cleavage turned out to be 0.03.
For the variant GUUAACGGUCAUAGGCCAUGGAAACUAGGAGCACCAUUUCGCUGCCAGUGGAGAAAUGAACAAAGAAUAUCUGGGCCAGGCAGGCAUCAAAAGAAAUAGUCUUGCGCUCAACCAGAAAGUCUGUAAUCAUUUUAAGGGCA [A51G A68U U139C], the self-cleavage stood at 1.19.
As to GUUAACGGUCAUAGGCCAUGGAAACUAGGAGCACCAUUUCGCUGCCAGUGGAGAAAUGAACAAAGAAAGUCUGGGCCAGGCAGGCAUCAAAAGAAAUAGUCUUGCGCUCAACCAGAAAGUCUGUGAUCAUCUUAAGGGUA [A51G A69G A125G U131C], the self-cleavage turned out to be 0.3.
